Laboratory results reported in PMC8039031.
These are yes or no findings as the source states them, for the method shown. For part of these data: In cells and extracts the contact can be indirect. Some entries that bind do so weakly or less than the wild type. For part of these data: Tags and fused reporters may be left off the sequences shown.

Chains of the proteins cited; added tags and fusions are not shown. Lines headed by an entry give the natural chain unless they say otherwise; changes in a name come on top.
UniProt P40763: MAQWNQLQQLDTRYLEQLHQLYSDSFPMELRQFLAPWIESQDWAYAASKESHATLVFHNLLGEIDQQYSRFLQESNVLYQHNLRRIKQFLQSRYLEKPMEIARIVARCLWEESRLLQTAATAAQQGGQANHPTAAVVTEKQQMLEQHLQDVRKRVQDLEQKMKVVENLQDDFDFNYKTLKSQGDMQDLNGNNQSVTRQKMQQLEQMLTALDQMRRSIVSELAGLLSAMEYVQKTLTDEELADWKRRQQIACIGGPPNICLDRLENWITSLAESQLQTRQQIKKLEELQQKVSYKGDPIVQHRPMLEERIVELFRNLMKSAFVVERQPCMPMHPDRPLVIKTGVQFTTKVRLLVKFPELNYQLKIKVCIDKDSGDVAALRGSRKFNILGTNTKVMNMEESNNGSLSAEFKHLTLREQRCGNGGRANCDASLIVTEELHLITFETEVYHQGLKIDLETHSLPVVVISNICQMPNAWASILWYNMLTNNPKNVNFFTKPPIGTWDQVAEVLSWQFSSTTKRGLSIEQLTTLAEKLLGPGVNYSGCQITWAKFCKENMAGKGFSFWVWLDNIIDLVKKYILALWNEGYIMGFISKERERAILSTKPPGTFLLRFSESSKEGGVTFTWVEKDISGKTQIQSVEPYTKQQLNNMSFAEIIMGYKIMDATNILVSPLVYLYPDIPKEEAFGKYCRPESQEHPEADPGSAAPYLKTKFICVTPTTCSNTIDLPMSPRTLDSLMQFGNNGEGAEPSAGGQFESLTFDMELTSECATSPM
UniProt Q09472: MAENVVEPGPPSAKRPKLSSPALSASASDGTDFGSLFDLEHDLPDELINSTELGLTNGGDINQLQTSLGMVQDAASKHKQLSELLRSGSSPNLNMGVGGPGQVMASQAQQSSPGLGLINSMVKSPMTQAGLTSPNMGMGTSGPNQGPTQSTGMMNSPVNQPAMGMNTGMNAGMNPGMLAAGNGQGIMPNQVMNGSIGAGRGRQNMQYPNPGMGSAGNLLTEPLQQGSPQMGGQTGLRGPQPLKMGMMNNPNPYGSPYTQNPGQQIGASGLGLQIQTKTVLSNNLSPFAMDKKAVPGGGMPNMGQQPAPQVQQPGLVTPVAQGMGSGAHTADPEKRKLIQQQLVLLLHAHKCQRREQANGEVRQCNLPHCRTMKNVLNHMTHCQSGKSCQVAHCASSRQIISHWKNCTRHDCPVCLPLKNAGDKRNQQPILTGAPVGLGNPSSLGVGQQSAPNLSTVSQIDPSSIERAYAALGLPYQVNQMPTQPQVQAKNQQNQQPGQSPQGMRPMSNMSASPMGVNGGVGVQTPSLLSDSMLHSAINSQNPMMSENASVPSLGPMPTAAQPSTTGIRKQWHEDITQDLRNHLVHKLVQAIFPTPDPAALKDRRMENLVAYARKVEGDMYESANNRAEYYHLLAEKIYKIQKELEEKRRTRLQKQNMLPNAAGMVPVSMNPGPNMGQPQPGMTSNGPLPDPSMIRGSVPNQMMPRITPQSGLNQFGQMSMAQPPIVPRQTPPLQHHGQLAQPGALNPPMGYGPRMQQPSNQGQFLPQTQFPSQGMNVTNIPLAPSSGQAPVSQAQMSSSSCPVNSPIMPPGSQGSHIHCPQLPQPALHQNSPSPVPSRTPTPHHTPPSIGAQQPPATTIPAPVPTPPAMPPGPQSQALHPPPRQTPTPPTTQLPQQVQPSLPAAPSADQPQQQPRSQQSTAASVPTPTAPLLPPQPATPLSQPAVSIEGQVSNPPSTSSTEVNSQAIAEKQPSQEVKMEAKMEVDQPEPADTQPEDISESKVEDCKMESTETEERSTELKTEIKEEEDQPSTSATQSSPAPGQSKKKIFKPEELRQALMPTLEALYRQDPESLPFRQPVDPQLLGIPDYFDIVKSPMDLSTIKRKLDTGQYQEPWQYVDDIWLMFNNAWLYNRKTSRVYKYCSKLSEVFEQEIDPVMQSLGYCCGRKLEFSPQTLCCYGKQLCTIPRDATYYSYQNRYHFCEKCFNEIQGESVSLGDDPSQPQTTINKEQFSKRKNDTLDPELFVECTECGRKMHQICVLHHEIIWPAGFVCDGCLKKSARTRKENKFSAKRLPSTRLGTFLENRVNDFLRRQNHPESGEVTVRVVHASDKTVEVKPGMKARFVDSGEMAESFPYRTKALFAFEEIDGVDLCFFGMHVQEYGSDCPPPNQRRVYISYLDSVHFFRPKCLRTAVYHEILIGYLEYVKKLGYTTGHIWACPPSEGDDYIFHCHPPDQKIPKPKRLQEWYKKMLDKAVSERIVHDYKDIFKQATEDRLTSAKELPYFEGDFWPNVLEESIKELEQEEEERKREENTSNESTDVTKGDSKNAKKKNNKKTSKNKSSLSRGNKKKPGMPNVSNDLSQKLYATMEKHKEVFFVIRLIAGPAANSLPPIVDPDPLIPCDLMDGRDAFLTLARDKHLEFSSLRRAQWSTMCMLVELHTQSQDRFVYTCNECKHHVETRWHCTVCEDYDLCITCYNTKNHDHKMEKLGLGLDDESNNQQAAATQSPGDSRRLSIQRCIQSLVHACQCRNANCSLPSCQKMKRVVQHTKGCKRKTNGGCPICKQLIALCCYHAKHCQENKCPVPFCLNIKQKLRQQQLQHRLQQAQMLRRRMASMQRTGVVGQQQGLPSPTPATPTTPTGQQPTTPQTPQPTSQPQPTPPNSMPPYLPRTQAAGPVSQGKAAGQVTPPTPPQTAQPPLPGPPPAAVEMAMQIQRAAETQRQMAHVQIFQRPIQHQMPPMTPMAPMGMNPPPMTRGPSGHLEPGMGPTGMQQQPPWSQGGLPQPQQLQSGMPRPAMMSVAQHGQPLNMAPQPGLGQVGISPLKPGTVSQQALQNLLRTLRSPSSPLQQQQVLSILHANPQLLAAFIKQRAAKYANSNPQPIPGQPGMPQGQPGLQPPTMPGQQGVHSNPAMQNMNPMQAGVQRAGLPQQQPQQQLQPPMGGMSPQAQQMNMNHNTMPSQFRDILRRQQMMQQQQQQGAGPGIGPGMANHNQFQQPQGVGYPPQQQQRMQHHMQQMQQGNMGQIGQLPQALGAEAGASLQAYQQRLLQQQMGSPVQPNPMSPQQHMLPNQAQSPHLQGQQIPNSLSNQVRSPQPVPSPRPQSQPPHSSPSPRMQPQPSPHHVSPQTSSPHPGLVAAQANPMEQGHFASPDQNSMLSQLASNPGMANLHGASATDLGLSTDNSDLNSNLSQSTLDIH
UniProt Q92830: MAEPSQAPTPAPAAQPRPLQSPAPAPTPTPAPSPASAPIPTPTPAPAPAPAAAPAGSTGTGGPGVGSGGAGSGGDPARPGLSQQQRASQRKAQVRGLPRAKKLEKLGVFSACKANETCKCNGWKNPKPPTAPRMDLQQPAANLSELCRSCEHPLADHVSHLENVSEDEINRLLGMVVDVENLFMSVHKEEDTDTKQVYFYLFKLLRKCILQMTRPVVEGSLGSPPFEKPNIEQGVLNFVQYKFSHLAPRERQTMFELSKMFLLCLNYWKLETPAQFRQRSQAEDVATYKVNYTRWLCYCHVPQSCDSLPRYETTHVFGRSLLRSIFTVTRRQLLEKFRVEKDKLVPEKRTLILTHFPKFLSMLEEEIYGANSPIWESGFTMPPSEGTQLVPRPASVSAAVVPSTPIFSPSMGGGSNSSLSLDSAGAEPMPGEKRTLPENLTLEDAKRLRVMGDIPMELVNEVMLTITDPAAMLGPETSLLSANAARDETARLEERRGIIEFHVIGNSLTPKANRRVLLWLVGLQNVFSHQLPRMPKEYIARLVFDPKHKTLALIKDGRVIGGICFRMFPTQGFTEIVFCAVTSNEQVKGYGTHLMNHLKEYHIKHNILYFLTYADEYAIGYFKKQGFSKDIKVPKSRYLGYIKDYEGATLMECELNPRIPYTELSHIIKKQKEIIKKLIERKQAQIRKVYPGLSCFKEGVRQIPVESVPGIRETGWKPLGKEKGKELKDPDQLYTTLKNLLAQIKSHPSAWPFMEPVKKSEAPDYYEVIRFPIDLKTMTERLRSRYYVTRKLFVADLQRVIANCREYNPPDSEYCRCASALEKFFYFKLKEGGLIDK

Experiments:
[1] = biological target: T1, Myc-CREPT (cell cycle-related and elevated-expression protein in tumours, RPRD1B) (UniProt Q9NQG5); test: co-IP; cytoplasmic and nuclear fractions, with or without LIF (Fig. 4b)
T1 sequence: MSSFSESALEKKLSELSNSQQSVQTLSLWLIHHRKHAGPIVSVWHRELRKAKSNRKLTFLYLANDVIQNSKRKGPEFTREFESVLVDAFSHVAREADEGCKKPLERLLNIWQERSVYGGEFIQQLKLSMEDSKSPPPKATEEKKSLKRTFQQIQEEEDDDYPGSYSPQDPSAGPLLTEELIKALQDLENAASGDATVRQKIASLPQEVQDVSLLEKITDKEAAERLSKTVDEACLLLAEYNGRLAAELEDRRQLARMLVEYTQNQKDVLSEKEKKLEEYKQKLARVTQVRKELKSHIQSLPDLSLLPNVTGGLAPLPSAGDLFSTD

[2] = biological target: T1, Myc-CREPT (cell cycle-related and elevated-expression protein in tumours, RPRD1B); test: co-IP; exogenously expressed proteins, cells without LIF; HEK293T (Fig. 4a); cells of Fig. 4c not stated
[3] = biological target: T1, Myc-CREPT (cell cycle-related and elevated-expression protein in tumours, RPRD1B); test: co-IP; exogenously expressed proteins, cells treated with LIF; HEK293T (Fig. 4a); cells of Fig. 4c not stated
[4] = biological target: T2, GST-CREPT (UniProt Q9NQG5); test: pull-down; GST-CREPT purified from E. coli with Flag-STAT3 from untreated HEK293T cells (Fig. 4d); both purified
T2 sequence: T1 sequence

[5] = biological target: T2, GST-CREPT; test: pull-down; GST-CREPT purified from E. coli with Flag-STAT3 purified from HEK293T cells under LIF stimulation (Fig. 4d); both purified
[6] = biological target: T3, endogenous CREPT (human (endogenous in MCF7 and SW480)) (UniProt Q9NQG5); test: co-IP; MCF7 cell lysates under LIF stimulation precipitated by an anti-CREPT antibody (Fig. 5h)
T3 sequence: T1 sequence

[7] = biological target: Flag-STAT3 expressed in MCF7 cells (UniProt P40763); test: co-IP; Flag-STAT3 in MCF7 cells, co-expressed with Myc-CREPT or with siRNAs against endogenous CREPT, under LIF stimulation (Fig. 5i-k)
[8] = biological target: T3, endogenous CREPT (human (endogenous in MCF7 and SW480)); test: co-IP; endogenous proteins; nuclear extracts of MCF7 or SW480 cells immunoprecipitated with an anti-CREPT antibody, with or without LIF

| Substance | binding [3] | binding [6] | binding [7] | binding [8] | further results |
| --- | --- | --- | --- | --- | --- |
| STAT3Y705F (from UniProt P40763 1-770) | no binding |  |  |  |  |
| endogenous p300 (from UniProt Q09472 1-2414) |  | binds | binds | binds |  |
| GCN5 (from UniProt Q92830 1-837) |  |  | binds |  |  |

More lines, main results first:

| binding [3] | binding [6] | binding [7] | binding [8] | Substance | further results |
| --- | --- | --- | --- | --- | --- |
| binds |  |  |  | Flag-STAT3 (signal transducer and activator of transcription 3) (from UniProt P40763 1-770) | binding [1]: binds; binding [2]: no binding (condition: cells without LIF); binding [4]: no binding (condition: Flag-STAT3 from cells without LIF); binding [5]: binds |
|  | binds |  | binds | endogenous STAT3 (from UniProt P40763 1-770) |  |
